Assay results taken from PubChem BioAssay AID1345083 (National Center for Advancing Translational Sciences (NCATS), 2018).
Hit rate of the full screen: of about 94,000 compounds, about 6,200 (6.6%) were called active. Inconclusive means that the source gave no clear call. Such entries were picked first, then a sample of the others. The call rests on the fitted dose curve; in most records, active means well fitted inhibition curve with a large enough effect; inconclusive means small, poorly fitted or top-dose-only effect; inactive means flat fitted curve, though single readings scatter. Potencies beside an inconclusive call are fits to weak or partial responses and may not hold up.

Assay: Cytotoxic Profiling in HEK 293 Cell Line of Diverse Libraries Using Quantitative High-Throughput Screening; further: nearly all actives have a fitted effect of over 60% in size
Details: HEK 293 viability, ATP luminescence (CellTiter-Glo), 48-72 h; activity change, negative = cytotoxicity: at 115 µM (top of the series) unless noted; series mostly up to 115 µM
In short: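 qHTS cytotoxicity; HEK 293, 250 cells/well; compound pinned; 48 or 72 hr, 37 degree Celsius, 5% CO2, 95% humidity; CellTiter-Glo, 10 min RT; luminescence (ATP).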
On the % scale 0 is the no-effect control and ±100 the full control effect; potency means the concentration at half of the fitted maximal effect; tags describe the fitted curve by direction and shape.

Question: With `O=C(NC1CCCc2c1[nH]c1ccc(F)cc21)c1n[nH]c2c1CCC2` (configuration not stated) as the compound, how does the Potency read?
Answer: active: 35.5 µM

Question: Which Potency does the source give for `C[C@@H]1C(=O)O[C@H]2[C@H]1CC[C@@]1(C)Cc3sc(NS(=O)(=O)c4ccc(F)cc4)nc3[C@@H](C)[C@H]21` here?
Answer: inconclusive: 89.1 µM [inhibitor, single point]

Question: For `COc1ncccc1-c1cnc2[nH]cc(CC(=O)Nc3cccnc3)c2c1`, which Potency is on record?
Answer: active: 89.1 µM

Question: Which Potency does the source give for `COc1ccc(NC(=O)[C@@H]2C[C@H](c3ccc(F)cc3)N(Cc3csc(C)n3)C2)c(C)c1` here?
Answer: active: 89.1 µM

Question: Which “outcome” value does the source give for `O=C(C1CCCN(S(=O)(=O)N2CCCC2)C1)N1CCC(Cc2nncn2-c2ccccc2)CC1` (configuration not stated) here?
Answer: inactive

Question: With `Cc1cccc(-c2ccccc2C(=O)N2CCCC(CO)(Cc3ccccc3F)C2)c1` (configuration not stated) as the compound, how does the Potency read?
Answer: active: 20 µM

Question: Which Potency does the source give for `CCN(CC1CCN(C2CCN(C)CC2)CC1)C(=O)c1ccc(-c2ccccc2)cc1` here?
Answer: active: 22.4 µM

Question: With `O=c1[nH]nc2n1CCC(NS(=O)(=O)Cc1ccc(F)cc1)CC2` (configuration not stated) as the compound, how does the “activity change, negative = cytotoxicity” value read?
Answer: inactive: -3.21%

Question: With `O=C1NCc2ccccc2CC12CCN(Cc1cccc(F)c1)C2` (configuration not stated) as the compound, how does the Potency read?
Answer: inconclusive: 89.1 µM [inhibitor, partial curve]

Question: For `CN1CCC(N2CCN(C(=O)c3cc4cn(C5CC5)cc4s3)CC2)CC1`, which “outcome” value is on record?
Answer: inactive

Question: With `COc1ccc(C(=O)Nc2ccc([C@H]3OCC(=O)N[C@@H]3CO)cc2)cc1` as the compound, how does the “activity change, negative = cytotoxicity” value read?
Answer: inactive: 0.774% [at 172 µM]

Question: Which Potency does the source give for `Cc1cc(C)c(C)c(S(=O)(=O)N2CCC(c3c[nH]c4c(C)cccc34)CC2)c1C` here?
Answer: inconclusive: 8.91 µM [inhibitor, full curve, poor fit]

Question: Which Potency does the source give for `COc1ccc(-n2ncc(-c3c(-c4ccccc4)ncn3CCCO)c2C)cc1` here?
Answer: inconclusive: 79.4 µM [inhibitor, partial curve, poor fit]

Question: For `Cc1nn(-c2ccc(F)cc2)c(Oc2ccccc2F)c1CCC(=O)NCC1CCCO1` (configuration not stated), which Potency is on record?
Answer: inconclusive: 50.1 µM [inhibitor, partial curve, poor fit]

Question: With `COc1ccc(CN2C(=O)[C@@H]3C[C@@H](CN3Cc3cccs3)Oc3ccccc32)cc1` as the compound, how does the Potency read?
Answer: active: 79.4 µM

Question: With `COCCNC(=O)c1nc(-c2ccc(F)cc2)c2cnccn12` as the compound, how does the “activity change, negative = cytotoxicity” value read?
Answer: inactive: -13.9% [at 172 µM]

Question: Which Potency does the source give for `O=C1Nc2ccccc2CN(Cc2ccc(Cl)cc2)C12CCNC2` (configuration not stated) here?
Answer: active: 50.1 µM

Question: Which “activity change, negative = cytotoxicity” value does the source give for `Cc1cccc(OCC(=O)Nc2ccc(-c3nnc4n3CCCC4)cc2)c1` here?
Answer: inactive: -16.3%

Question: For `CCS(=O)(=O)c1ccc2oc([C@H]3CCN(Cc4ccc(OC)cc4)C3)nc2c1`, which Potency is on record?
Answer: active: 63.1 µM

Question: With `O=C1C[C@H]2CC[C@@H](CN1)N2Cc1ccc(OCc2ccccc2)cc1` as the compound, how does the Potency read?
Answer: inconclusive: 50.1 µM [inhibitor, partial curve, poor fit]

Question: With `CC(C)Oc1ccc(CNC(=O)C2Cn3cccc3C(=O)N2Cc2ccccc2)cc1` (configuration not stated) as the compound, how does the Potency read?
Answer: inconclusive: 44.7 µM [inhibitor, partial curve]

Question: With `FC(F)(F)c1cccc(-c2ncc[nH]2)c1` as the compound, how does the Potency read?
Answer: inconclusive: 39.8 µM [inhibitor, full curve]

Question: Which Potency does the source give for `Cc1nc2c(c(-c3ccc(Cl)cc3)n1)CCN(C(=O)Cc1cccc(Cl)c1)CC2` here?
Answer: inconclusive: 79.4 µM [inhibitor, partial curve, poor fit]

Question: For `COc1ccc(-c2noc([C@@H]3CCCN3C(=O)Cc3ccc(C)cc3)n2)cc1OC`, which Potency is on record?
Answer: inconclusive: 89.1 µM [inhibitor, single point]

Question: Which Potency does the source give for `O=C(c1ccccc1OC1CCN(Cc2ccc(-n3cccn3)cc2)CC1)N1CCCCC1` here?
Answer: inconclusive: 56.2 µM [inhibitor, partial curve, poor fit]

Question: With `CN(C)c1ccc(CN2CC[C@H](c3nc4ncccc4[nH]3)C2)cc1` as the compound, how does the “activity change, negative = cytotoxicity” value read?
Answer: inactive: -22.7% [at 172 µM]

Question: With `Cn1nccc1C(=O)N1CCC(c2noc(-c3ccccc3)n2)C1` (configuration not stated) as the compound, how does the Potency read?
Answer: inconclusive: 44.7 µM [inhibitor, partial curve, poor fit]

Question: Which “activity change, negative = cytotoxicity” value does the source give for `O=C(CNC(=O)c1cccc(-c2ccsc2)c1)NCc1ccc(C(F)(F)F)cc1` here?
Answer: inactive: -9.05%

Question: With `Cc1ccsc1CN1CCCCCCNC(=O)CC1c1ccccc1` (configuration not stated) as the compound, how does the Potency read?
Answer: inconclusive: 39.8 µM [inhibitor, full curve, poor fit]

Question: For `O=C1Nc2ccccc2C12CCN(S(=O)(=O)c1ccccc1)C2` (configuration not stated), which Potency is on record?
Answer: inconclusive: 112 µM [inhibitor, single point]

Question: With `O=C1NCCN2CC3(CCN(C(=O)CCc4ccccc4)CC3)CC12` (configuration not stated) as the compound, how does the “activity change, negative = cytotoxicity” value read?
Answer: inactive: 4.94%

Question: Which “activity change, negative = cytotoxicity” value does the source give for `CC(=O)N1CCC(NC[C@@H]2C=C(C)[C@H](Cc3nc4ccncc4[nH]3)C[C@H]2C(C)C)CC1` here?
Answer: inactive: -0.336% [at 172 µM]

Question: Which Potency does the source give for `O=C(Nc1cccc(F)c1)c1cnc(-c2ccc(F)cc2)nc1-c1ccncc1` here?
Answer: active: 44.7 µM

Question: With `Cc1ncccc1-c1nc2cc(C(=O)NCc3cccs3)ccc2o1` as the compound, how does the “activity change, negative = cytotoxicity” value read?
Answer: inactive: -4.16%

Question: With `O=C(CN1C(=O)NC(c2ccc(Cl)cc2)C2=C1COC2=O)Nc1ccc(C(F)(F)F)cc1` (configuration not stated) as the compound, how does the Potency read?
Answer: inconclusive: 11.2 µM [inhibitor, full curve, poor fit]

Question: For `O=C(NCc1ccccc1)c1ccccc1OC1CN(Cc2cccc(F)c2F)C1`, which Potency is on record?
Answer: inconclusive: 17.8 µM [inhibitor, full curve, poor fit]

Question: Which Potency does the source give for `COc1ccc(Cn2c(-c3ccc(Cl)cc3)nc(C)c(CCO)c2=O)cc1F` here?
Answer: active: 44.7 µM

Question: For `Cc1ccc(C)c(C(O)Cn2ccn3nc(-c4cccs4)cc3c2=O)c1` (configuration not stated), which Potency is on record?
Answer: inconclusive: 22.4 µM [inhibitor, full curve, poor fit]

Question: Which Potency does the source give for `COc1ccc(-c2cc(N3CCN(C(=O)c4ccc(C)nc4)CC3)n[nH]2)cc1` here?
Answer: inconclusive: 35.5 µM [inhibitor, full curve]

Question: For `CC(C)[C@H]1CN(CCS(C)(=O)=O)C[C@@H]1NC(=O)CCn1cncn1`, which “activity change, negative = cytotoxicity” value is on record?
Answer: inactive: 2.16%

Question: Which Potency does the source give for `O=C(NC1CCN(c2cc(-c3ccccc3)[nH]n2)CC1)c1ccccc1Cl` here?
Answer: inconclusive: 70.8 µM [inhibitor, partial curve]

Question: For `C[C@@H]1CN(C(=O)c2ccc3c(c2)NC(C)(COc2ccc4[nH]ccc4c2)CO3)C[C@H](C)O1` (some centres not stated), which Potency is on record?
Answer: inconclusive: 89.1 µM [inhibitor, partial curve, poor fit]

Question: For `O=C(NCCC1=CCCCC1)[C@H]1CN(Cc2ccccc2)C[C@H]1C(=O)O`, which “outcome” value is on record?
Answer: inactive

Question: For `Cc1noc(C)c1CCC(=O)N1CCn2nc(Cc3ccccc3)cc2C1`, which Potency is on record?
Answer: inconclusive: 79.4 µM [inhibitor, partial curve, poor fit]

Question: Which “activity change, negative = cytotoxicity” value does the source give for `Cc1ccc(C(=O)N2CCC(c3n[nH]c(=O)n3-c3ccc(C)cc3)CC2)cc1` here?
Answer: inactive: 8.66%

Question: For `CC(C)CNC(=O)c1ccc2c(c1)N(S(=O)(=O)c1ccccc1F)CC2`, which Potency is on record?
Answer: inconclusive: 70.8 µM [inhibitor, partial curve, poor fit]

Question: For `COc1ccc(CN2CCC([C@@H]3CNC[C@H]3CO)CC2)c(OC)c1`, which “activity change, negative = cytotoxicity” value is on record?
Answer: inactive: 1.47%

Question: For `O=C(NCCCc1ccccc1)c1ccc(CN2C(=O)NC3(CCOCC3)C2=O)cc1`, which Potency is on record?
Answer: inconclusive: 79.4 µM [inhibitor, partial curve, poor fit]

Question: With `COCCOCC1(CNC(=O)C2CC2)C[C@@H](O)[C@@H](O)C1` (some centres not stated) as the compound, how does the Potency read?
Answer: inconclusive: 44.7 µM [inhibitor, single point]

Question: For `CC(C)COC(=O)N1CCCn2nc(-c3nc4ccccc4n3C)cc2C1`, which Potency is on record?
Answer: inconclusive: 50.1 µM [inhibitor, partial curve, poor fit]

Question: With `CCC(=O)N1CCCCCC1c1nnc(-c2ccccc2)o1` (configuration not stated) as the compound, how does the “activity change, negative = cytotoxicity” value read?
Answer: inactive: -22.7%

Question: For `Cc1noc2c(-c3cn[nH]c3)cc(-c3ccc(F)cc3)nc12`, which Potency is on record?
Answer: inconclusive: 70.8 µM [inhibitor, partial curve]

Question: With `CC1=NS(=O)(=O)N(Cc2ccc(Cl)cc2)C=C1C(=O)O` as the compound, how does the “activity change, negative = cytotoxicity” value read?
Answer: inactive: -2.93%

Question: With `CCCCc1ncc(CN(C)CC2CCCN(CCc3ccc(F)cc3)C2)[nH]1` (configuration not stated) as the compound, how does the Potency read?
Answer: active: 39.8 µM

Question: With `CCCC(=O)N1CCCN(c2ccnc3ccnn23)CC1` as the compound, how does the “activity change, negative = cytotoxicity” value read?
Answer: inactive: -12.7% [at 172 µM]

Question: Which “activity change, negative = cytotoxicity” value does the source give for `COCCCNC(=O)c1nc2cccnc2n(C2CC2)c1=O` here?
Answer: inactive: -0.429% [at 172 µM]

Question: For `O=C1CC(c2ccccc2)N(C(=O)CNC(=O)c2ccc3[nH]ccc3c2)CCCCCN1` (configuration not stated), which Potency is on record?
Answer: inconclusive: 89.1 µM [inhibitor, single point]

Question: With `O=C(Cc1ccc(F)cc1)N1CCCC(C(=O)N2CCC(c3nc4ncccc4[nH]3)CC2)C1` (configuration not stated) as the compound, how does the “activity change, negative = cytotoxicity” value read?
Answer: inactive: -25.5%

Question: Which Potency does the source give for `CCC1(CC)CC1C(=O)N1CCc2onc(-c3cccc(F)c3)c2C1` (configuration not stated) here?
Answer: active: 44.7 µM

Question: Which “outcome” value does the source give for `COC1C(=O)N(C2CCN(S(=O)(=O)Cc3ccccc3)CC2)C12CCOCC2` (configuration not stated) here?
Answer: inactive

Question: With `CN(C)[C@@H]1CN(C(=O)c2cccn2C)CC[C@]1(O)c1ccccc1` as the compound, how does the “activity change, negative = cytotoxicity” value read?
Answer: inactive: -8.93%

Question: With `CC(Cc1ccncc1)Nc1nccc(-c2cnn(-c3ccccc3F)c2)n1` (configuration not stated) as the compound, how does the Potency read?
Answer: active: 35.5 µM

Question: With `O=S(=O)(NC1CCc2nnc(C3CC3)n2CC1)c1cccs1` (configuration not stated) as the compound, how does the “activity change, negative = cytotoxicity” value read?
Answer: inactive: 1.22%

Question: With `CC(C)c1nncn1C1CCN(S(=O)(=O)c2ccc(Br)s2)CC1` as the compound, how does the Potency read?
Answer: inconclusive: 12.6 µM [inhibitor, full curve, poor fit]

Question: For `COCCN1CCCCC(CC(=O)Nc2ccc(C)c(F)c2)C1=O` (configuration not stated), which “activity change, negative = cytotoxicity” value is on record?
Answer: inactive: -29.4%

Question: Which Potency does the source give for `Cc1cccc(C(=O)Nc2ccc3ncnc(N4CCCCC4)c3c2)c1` here?
Answer: inconclusive: 50.1 µM [inhibitor, partial curve, poor fit]

Question: For `COc1ccc(C)cc1NC(=O)C1CCN(c2cnc3nc(C)c(C)nc3c2)CC1`, which Potency is on record?
Answer: inconclusive: 79.4 µM [inhibitor, single point]

Question: For `COc1ccc(NC(=O)N2CC3CN(C)CC(C2)O3)cc1`, which “activity change, negative = cytotoxicity” value is on record?
Answer: inactive: 3.43%

Question: Which “activity change, negative = cytotoxicity” value does the source give for `CNC(=O)c1ccc(Cl)c(NC(=O)N[C@H]2CN(C(C)C)C[C@@H]2OC)c1` here?
Answer: inactive: -10%

Question: Which Potency does the source give for `O=C1[C@@H]2C[C@@H](CN2Cc2ccccn2)Oc2ccccc2N1CC1CC1` here?
Answer: inconclusive: 100 µM [inhibitor, partial curve]

Question: Which Potency does the source give for `COc1ccc(CNC(=O)c2cccc3c2CCN3C(=O)c2ccc(F)cc2)cc1OC` here?
Answer: inconclusive: 11.2 µM [inhibitor, full curve, poor fit]

Question: Which Potency does the source give for `O=C(Cc1ccccn1)N1CCCC2(CNc3ncccc3[S+](=O)([O-])N2)C1` (configuration not stated) here?
Answer: inconclusive: 79.4 µM [inhibitor, partial curve, poor fit]
